Test results published in PubChem BioAssay AID588342 (National Center for Advancing Translational Sciences (NCATS), 2011).
Screen size: about 360,000 compounds; about 25,000 (6.9%) were called active. This list was built around the results that the source calls inconclusive (neither active nor inactive); the mix of calls is not that of the screen. The call rests on the fitted dose curve; in most records, active means well fitted inhibition curve with a large enough effect; inconclusive means small, poorly fitted or top-dose-only effect; inactive means flat fitted curve, though single readings scatter. Where the call is inconclusive, the potency comes from a doubtful curve fit.

Biological target: Luciferin 4-monooxygenase (Photinus pyralis) (UniProt P08659)
Chain of UniProt P08659 (P08659 whole entry, looked up): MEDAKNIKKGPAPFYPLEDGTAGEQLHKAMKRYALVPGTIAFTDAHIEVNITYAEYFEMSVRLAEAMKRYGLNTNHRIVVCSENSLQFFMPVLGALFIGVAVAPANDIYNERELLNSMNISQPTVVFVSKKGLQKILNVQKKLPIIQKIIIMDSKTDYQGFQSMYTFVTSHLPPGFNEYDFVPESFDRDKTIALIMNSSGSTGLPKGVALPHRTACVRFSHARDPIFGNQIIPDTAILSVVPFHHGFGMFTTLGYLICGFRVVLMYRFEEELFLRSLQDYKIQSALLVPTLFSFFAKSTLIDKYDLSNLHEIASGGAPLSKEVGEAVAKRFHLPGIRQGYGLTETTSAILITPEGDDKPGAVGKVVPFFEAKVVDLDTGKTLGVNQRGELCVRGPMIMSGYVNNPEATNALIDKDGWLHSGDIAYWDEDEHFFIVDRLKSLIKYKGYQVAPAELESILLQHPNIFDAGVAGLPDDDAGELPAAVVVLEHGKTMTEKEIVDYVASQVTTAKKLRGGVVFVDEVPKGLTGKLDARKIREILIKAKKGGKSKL
Test: qHTS profiling assay for firefly luciferase inhibitor/activator using purifed enzyme and Km concentrations of substrates (counterscreen for miR-21 project); further: nearly all actives have a fitted effect of over 55% in size;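 on activity change, negative = inhibition: plate controls were vehicle for no effect and reference inhibitor for full effect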
Conditions: purified FLuc, luminescence inhibition; series mostly up to 57.5 µM; activity change, negative = inhibition: at the top concentration
Summary of the method: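 Biochemical qHTS of compounds, final roughly 60 µM downward over six points, against 10 nM purified firefly luciferase using Km concentrations of substrates (10 uM D-luciferin, 10 uM ATP) in Tris acetate pH 7.5 buffer; luminescence output.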
Potency means the concentration at half of the fitted maximal effect; tags describe the fitted curve by direction and shape.

| Compound | Potency | activity change, negative = inhibition |
| --- | --- | --- |
| CC(/C=N/NC(=O)c1nnn(-c2nonc2N)c1C)=C\c1ccccc1 | inconclusive: 0.239 µM [inhibitor, full curve, poor fit] |  |
| CCN(CC)C(=O)Cn1cc(C(=O)C(=O)NCc2ccco2)c2ccccc21 |  | inactive: -2.27% |
| c1ccc2c(c1)ccc1nnc(SCc3ccc4c(c3)OCO4)n12 | inconclusive: 26.9 µM [inhibitor, single point] |  |
| O=C1CCc2cc(S(=O)(=O)NCCc3ccc(Cl)cc3)cc3c2N1CC3 |  | inactive: -0.6% |
| CC(C)(C)c1ccc(/C=C/C(=O)O)s1 | inconclusive: 26.9 µM [inhibitor, partial curve] |  |
| NC(=O)CC(NC(=O)Cc1ccc(Br)cc1)c1ccc(N2CCC(N3CCCC3)CC2)c([N+](=O)[O-])c1 (centres undefined) |  | inactive: 5.73% |
| C[n+]1c(/C=C/c2ccc(O)cc2)ccc2ccccc21 | active: 13.5 µM |  |
| c1ccc(OCCCc2nc(-c3ccncc3)no2)cc1 |  | inactive: 0.982% |
| COc1ccc(CCNC(=O)c2ccc(CS(=O)(=O)Cc3cccc(C)c3)o2)cc1OC | inactive |  |
| CCOC(=O)c1sc(N/N=C/c2ccccc2)nc1C | active: 2.69 µM |  |
| CCN1CCN(C(c2ccc(F)cc2)c2c(O)cc(C)n(CCOC)c2=O)CC1 (centres undefined) |  | inactive: -2.08% |
| Cc1c(C(=O)N2CCCCC2)c(S(=O)(=O)Nc2ccc(F)cc2F)c(C)n1C |  | inactive: -1.75% |
| Cc1ccccc1NC(=O)NC1CCCCCCC1 | inconclusive: 23.9 µM [inhibitor, single point] |  |
| COc1ccc(C(=O)Nc2ccc(-c3cc4ccccc4oc3=O)c(C)c2)cc1OC | inconclusive: 21.3 µM [inhibitor, single point] |  |
| CCc1onc(C)c1C(=O)Nc1ccc2c(c1)OCO2 |  | inactive: 1.58% |
| Cc1nc2sc3c(c2c(=O)[nH]1)CCCCC3 | inconclusive: 21.3 µM [inhibitor, partial curve, poor fit] |  |
| O=C(NCc1ccccn1)c1cc(-c2ccc(Cl)cc2)nc2ccccc12 | active: 5.36 µM |  |
| O=C1CCC/C(=N\NC(=O)c2ccc(COc3ccccc3-c3ccccc3)cc2)C1 | inconclusive: 26.9 µM [inhibitor, single point] |  |
| CCc1nnc(NC(=O)C2CCN(C(=O)c3ccco3)CC2)s1 |  | inactive: -2.83% |
| COc1cc(C=C(c2nc3ccccc3s2)c2nc3ccccc3s2)ccc1O | inconclusive: 30.1 µM [inhibitor, single point] |  |
| COc1ccc(CNC(=O)CSc2ncc(S(=O)(=O)c3ccc(C)c(Cl)c3)c(=O)[nH]2)cc1 | inconclusive: 9.53 µM [inhibitor, partial curve] |  |
| COc1ccccc1CNC(=O)COC(=O)c1cccnc1SCC(=O)NCc1ccccc1OC | inconclusive: 12 µM [inhibitor, partial curve] |  |
| COc1ccc(OC)c(/C=C/C(=O)OCC(=O)NCc2cccs2)c1 |  | inactive: -0.66% |

| Compound | Potency | activity change, negative = inhibition |
| --- | --- | --- |
| CC(C)CNC(=O)C(=O)N/N=C/c1cccs1 | inconclusive: 16.9 µM [inhibitor, single point] |  |
| COc1ccc2nc(NC(=O)Cn3cnc4c(=O)n(C)c(=O)n(C)c43)sc2c1 | inconclusive: 21.3 µM [inhibitor, partial curve, poor fit] |  |
| Cc1c(C(=O)Nc2ccc(C(C)C)cc2)sc2nc[nH]c(=O)c12 | inconclusive: 4.78 µM [inhibitor, partial curve, poor fit] |  |
| CC(C)c1ccc(NC(=O)CSc2ncccc2C(=O)Oc2cccc([N+](=O)[O-])c2)cc1 | inconclusive: 33.8 µM [inhibitor, single point] |  |
| CC1CCN(S(=O)(=O)c2ccc3c(c2)N(CC(=O)NC(C)C)C(=O)CO3)CC1 |  | inactive: 0.895% |
| Cc1ccc(N2NC(=O)/C(=C/c3ccc(-c4ccc(Cl)c(C(=O)O)c4)o3)C2=O)cc1 | active: 10.7 µM |  |
| COc1ccc(-c2nnc(N3CCCCC3)c3ccccc23)cc1 | inconclusive: 30.1 µM [inhibitor, partial curve, poor fit] |  |
| COc1ccc2[nH]c(=O)c(CN(C(=O)C(C)C)c3ccccc3OC)cc2c1 |  | inactive: -0.579% |
| O=C(Nc1cccc2cccnc12)c1ccc(Br)o1 | inconclusive: 23.9 µM [inhibitor, single point] |  |
| COc1ccc(CCCc2n[nH]c(=S)o2)cc1 | inconclusive: 26.9 µM [inhibitor, partial curve, poor fit] |  |
| NNC(=O)c1ccc(NS(=O)(=O)c2ccc(Br)cc2)cc1 | inconclusive: 9.53 µM [inhibitor, partial curve] |  |
| Cc1[nH]c2ccccc2c1C(=O)CSc1ccccn1 | inconclusive: 37.9 µM [inhibitor, single point] |  |
| COc1cc(O)cc2occ(-c3ccc(O)cc3)c(=O)c12 | inconclusive: 16.9 µM [inhibitor, partial curve] |  |
| COc1cccc(CNC(=O)CSc2ncc(S(=O)(=O)c3ccc(Br)cc3)c(=O)[nH]2)c1 | inconclusive: 9.53 µM [inhibitor, partial curve] |  |
| Cc1ccc(-c2nnc(Nc3ccc(Cl)c(Cl)c3)c3ccccc23)cc1S(=O)(=O)NCCO | inconclusive: 6.75 µM [inhibitor, partial curve, poor fit] |  |
| Cc1cccc(Nc2nnc(-c3ccc(N4CCOCC4)c([N+](=O)[O-])c3)c3ccccc23)c1 |  | inactive: 3.46% |
| Cc1cccc(C)c1OCc1cc(C(=O)N2CCN3CCCC3C2)no1 (centres undefined) | inconclusive: 37.9 µM [inhibitor, partial curve, poor fit] |  |
| Cc1cc(C)cc(Oc2ccc(NC(=O)C3CC=CCC3C(=O)O)cc2)c1 (centres undefined) | inconclusive: 26.9 µM [inhibitor, partial curve] |  |
| Fc1ccc(Cc2cn3cc(-c4ccccc4)nc3s2)cc1 | active: 0.107 µM |  |
| Cc1ccc(OCC(=O)N2CCCCCCC2)cc1C | inconclusive: 37.9 µM [inhibitor, partial curve, poor fit] |  |
| O=C(CSc1nnnn1-c1cccc2ccccc12)NC(C(=O)O)(c1ccccc1)c1ccccc1 | inconclusive: 26.9 µM [inhibitor, single point] |  |
| CCOC(=O)c1ccc(NC(=O)c2csnn2)cc1 | inconclusive: 10.7 µM [inhibitor, partial curve] |  |
| O=C1C(Cl)=C(N2CCCCCC2)C(=O)N1c1ccc(Br)cc1 | inconclusive: 16.9 µM [inhibitor, partial curve] |  |

| Compound | Potency | activity change, negative = inhibition |
| --- | --- | --- |
| NS(=O)(=O)c1ccc(-c2ccc(/C=N/Nc3ccc(C(=O)O)cc3)o2)cc1 | active: 7.57 µM |  |
| CN(C)c1ccc(NS(=O)(=O)c2cc3c4c(c2)CC(=O)N4CCC3)cc1 | inconclusive: 26.9 µM [inhibitor, single point] |  |
| COc1ccc(OC)c(NC(=O)c2ccccc2NC(=O)c2ccco2)c1 | inconclusive: 19 µM [inhibitor, partial curve] |  |
| CCOC(=O)CSc1nc(C)c(C(=O)OCC)s1 |  | inactive: -17.8% |
| Cc1ncoc1C(=O)Nc1cccc(Cl)c1 | inconclusive: 26.9 µM [inhibitor, single point] |  |
| COCCN(C(=O)CCc1ccc(OC)cc1)c1nnc(-c2ccncc2)s1 |  | inactive: 0.145% |
| Cc1ccc(NC(=O)Cc2cn(C)c3ccccc23)cc1F | inconclusive: 37.9 µM [inhibitor, partial curve, poor fit] |  |
| C=CCNc1nc(Nc2ccc(Cl)cc2)nc(OC)n1 | inconclusive: 26.9 µM [inhibitor, partial curve] |  |
| O=C(CCC(=O)c1cccs1)OCc1nc2ccccc2s1 | inconclusive: 16.9 µM [inhibitor, partial curve] |  |
| COc1cccc(CN2CCNC(=O)C2CC(=O)NCc2cc(C(C)C)no2)c1 (centres undefined) |  | inactive: 0.504% |
| COc1ccc(Cn2cccc(NC(=O)Nc3cccc(OC)c3)c2=O)cc1 | active: 21.3 µM |  |
| CC(/C=N\NC(=O)c1ccc2c(c1)OCO2)c1ccccc1 (centres undefined) | inconclusive: 30.1 µM [inhibitor, partial curve, poor fit] |  |
| COc1ccc(/C=C/C(=O)NCC(=O)N/N=C/c2cccnc2)cc1 | inconclusive: 37.9 µM [inhibitor, partial curve, poor fit] |  |
| Cc1ccc(/C=N/NC(=O)c2cc3c(ccc4ccccc43)o2)o1 | inconclusive: 23.9 µM [inhibitor, partial curve, poor fit] |  |
| c1ccc(COc2cccc(CNCc3cccs3)c2)cc1 | inconclusive: 16.9 µM [inhibitor, partial curve] |  |
| Nc1c(C(=O)Nc2ccccc2F)sc2nc(-c3ccco3)ccc12 | inconclusive: 13.5 µM [inhibitor, partial curve] |  |
| O=[N+]([O-])c1ccc(O)c(/C=N/Nc2ccc(Cl)nn2)c1 | inconclusive: 9.53 µM [inhibitor, partial curve] |  |
| O=C(Oc1ccc(C(=S)N2CCOCC2)cc1Br)c1ccccc1F | inconclusive: 8.49 µM [inhibitor, partial curve, poor fit] |  |
| CCc1ccc(CCC(=O)Nc2ccc(Cl)cc2)o1 | inconclusive: 21.3 µM [inhibitor, partial curve, poor fit] |  |
| CCOC(=O)CN1C(=O)S/C(=C/c2cc(C)n(-c3ccccn3)c2C)C1=O | active: 6.01 µM |  |
| O=C(Cn1c(=O)nc(-c2ccccc2)c2ccccc21)NCc1ccc(F)cc1 |  | inactive: -2.72% |
| Cc1nn(-c2ccccc2)c2sc(C(=O)n3cccn3)cc12 | inconclusive: 2.39 µM [inhibitor, partial curve, poor fit] |  |
| Cc1ccc(NC(=O)c2sc3ncn(CC(=O)N4CCOCC4)c(=O)c3c2C)c(Br)c1 | inconclusive: 2.69 µM [inhibitor, partial curve] |  |
